# Measurements reported in publication PMC4336329 (PLoS ONE, 2015).
# Hit rate of the full screen: of about 310,000 compounds, about 2,200 (0.71%) showed an effect of 50% or more. Effects have a minus sign here. The list shows a part of the results.
# Molecular target: human ether-à-go-go-related gene (hERG) potassium channel (human, UniProt Q12809)
# Assay: primary screen, population patch clamp on CHO cells stably expressing hERG
# Sequence of human ether-à-go-go-related gene (hERG) potassium channel (Q12809 whole entry, looked up): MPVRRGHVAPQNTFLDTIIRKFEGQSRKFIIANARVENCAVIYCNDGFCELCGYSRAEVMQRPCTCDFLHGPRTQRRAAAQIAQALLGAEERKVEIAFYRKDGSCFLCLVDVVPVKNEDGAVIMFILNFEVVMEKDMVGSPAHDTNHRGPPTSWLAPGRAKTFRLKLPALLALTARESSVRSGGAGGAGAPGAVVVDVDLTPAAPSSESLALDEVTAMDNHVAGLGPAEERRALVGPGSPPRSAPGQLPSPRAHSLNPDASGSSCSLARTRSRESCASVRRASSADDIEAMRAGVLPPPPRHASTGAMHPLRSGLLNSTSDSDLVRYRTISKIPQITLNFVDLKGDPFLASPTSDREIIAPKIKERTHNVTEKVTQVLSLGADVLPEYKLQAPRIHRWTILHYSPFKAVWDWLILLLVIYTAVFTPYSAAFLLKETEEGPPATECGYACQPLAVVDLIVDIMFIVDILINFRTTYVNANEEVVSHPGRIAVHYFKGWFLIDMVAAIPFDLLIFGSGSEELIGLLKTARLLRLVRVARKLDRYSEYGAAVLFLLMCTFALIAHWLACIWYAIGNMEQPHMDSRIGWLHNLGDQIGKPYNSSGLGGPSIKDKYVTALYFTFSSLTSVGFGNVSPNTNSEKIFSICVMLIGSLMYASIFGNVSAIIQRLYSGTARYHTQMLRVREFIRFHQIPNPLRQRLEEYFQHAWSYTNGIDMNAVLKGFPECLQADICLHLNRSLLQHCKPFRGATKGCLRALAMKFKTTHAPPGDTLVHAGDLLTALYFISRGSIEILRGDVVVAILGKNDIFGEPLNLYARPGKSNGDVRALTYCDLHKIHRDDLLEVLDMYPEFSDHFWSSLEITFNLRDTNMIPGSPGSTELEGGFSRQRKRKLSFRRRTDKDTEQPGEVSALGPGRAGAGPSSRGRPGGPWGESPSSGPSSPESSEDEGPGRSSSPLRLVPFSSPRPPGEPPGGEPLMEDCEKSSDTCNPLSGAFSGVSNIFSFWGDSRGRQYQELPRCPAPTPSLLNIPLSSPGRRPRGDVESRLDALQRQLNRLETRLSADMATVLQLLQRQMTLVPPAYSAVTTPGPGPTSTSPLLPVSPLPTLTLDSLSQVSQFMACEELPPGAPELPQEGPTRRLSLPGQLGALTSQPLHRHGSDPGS
row,Compound,"hERG current change (%, negative = inhibition) at 1uM"
1,COc1ccc(C(=O)OCC(=O)Nc2cc(S(=O)(=O)N3CCOCC3)ccc2N2CCCC2)cc1,11.9%
2,CCCc1nnc(NC(=O)CCC(=O)NCCc2ccc(OC)c(OC)c2)s1,-9.94%
3,O=C(Cn1nc(-c2ccc(Cl)cc2)ccc1=O)NCC1CCCO1 (stereo not drawn),2.32%
4,O=C(CNC(=O)c1ccccc1F)Nc1ccncc1,16.3%
5,COc1cc(C(=O)NCc2ccc(-n3cccc3)cc2)cc(OC)c1OC,16.9%
6,CCN1CCN(C(=S)c2ccc(Cl)c(Cl)c2)CC1,-11.3%
7,O=C(c1ccco1)N1CCN(C(=O)c2ccccc2Oc2ccccc2)CC1,-0.621%
8,COc1cc(C(=O)NC(=S)Nc2nc(-c3ccc(F)cc3)cs2)cc(OC)c1OC,8.92%
9,Cc1cc2ncc(-c3ncc(C(F)(F)F)cc3Cl)cn2n1,3.74%
10,COc1ccc(NC(=O)N[C@@H](Cc2ccccc2)C(=O)NN)cc1,5.67%
11,N#CCCSc1ncnc2c1oc1ccccc12,4.55%
12,C=CCNC(=O)NC(=O)COC(=O)[C@H](C)NS(=O)(=O)c1c(C)c(C)cc(C)c1C,6.58%
13,COC(=O)c1ccc(NC(=O)c2ccccc2)o1,16.7%
14,CCN(CC(=O)Nc1ccccc1OC)C(=O)CC1CC2CCC1C2 (stereo not drawn),7.01%
15,Cc1ccc(C(=O)NC(=S)Nc2cc(-c3nc4ccccc4s3)ccc2C)cc1,15%
16,Cc1cccc(NC(=O)c2nc[nH]c2C(=O)N2CCN(C(=O)OC(C)(C)C)CC2)c1,9.03%
17,O=C(O)C(Cc1c[nH]c2ccccc12)NS(=O)(=O)c1ccc(Cl)c(C(F)(F)F)c1 (stereo not drawn),7.86%
18,Cc1ccc(S(=O)(=O)N2CCCC(CCC(=O)NCc3ccccc3F)C2)s1 (stereo not drawn),2.25%
19,COc1ccccc1NC(=O)c1nn(-c2ccc(OC(F)(F)F)cc2)ccc1=O,13.4%
20,COc1cccc(NC(=O)N[C@@H](Cc2ccccc2)C(=O)O)c1,12.4%
21,CCOc1ccc(Br)cc1S(=O)(=O)Nc1ncn[nH]1,22.8%
22,CCOC(=O)N1CCN(C(=O)Cc2ccc(-n3c(=O)[nH]c4ccccc4c3=O)cc2)CC1,4.27%

row,Compound,"hERG current change (%, negative = inhibition) at 1uM"
1,O=C(c1cc(Br)ccc1O)N1CCN(S(=O)(=O)Cc2ccccc2)CC1,4.88%
2,CN(C)S(=O)(=O)c1ccc(C(=O)NCc2ccccn2)cc1,14.5%
3,COc1ccc(S(=O)(=O)N2CCOCC2)cc1NC(=O)CN1CCC(Cc2ccccc2)CC1,12.1%
4,Cc1csc(Cn2c(CN(C)C)nc3ccccc3c2=O)n1,8.72%
5,Cc1ccc(-n2c(C)csc2=N)cc1,17.7%
6,Cc1cc(C(=O)N2CCC(C(=O)O)CC2)c(C)o1,3.26%
7,O=C1c2ccccc2C(=O)N1CCc1csc(NNc2nc(CCN3C(=O)c4ccccc4C3=O)cs2)n1,0.532%
8,Cc1cccc(CC(C)NC(=O)c2oc3c(F)cccc3c2C)n1 (stereo not drawn),13.5%
9,COc1ccc(NC(=O)C(C)Sc2ccccc2)cc1 (stereo not drawn),4.73%
10,COc1ccc(C(C(=O)NC(C)C)N(C(=O)CCC(=O)Nc2nccs2)c2ccccc2F)cc1 (stereo not drawn),11.3%
11,COc1ccc(O)c(C(=O)c2cnc3nc4ccccc4n3c2)c1,1.95%
12,O=[N+]([O-])c1ccc(NC(=S)N2CCN(c3ccc(F)cc3)CC2)cc1,13%
13,Cc1oc(C(=O)O)cc1CSCc1ccoc1C(=O)O,10.4%
14,O=C(O)C(Cc1ccccc1)NC(=O)C(c1ccccc1)c1ccccc1 (stereo not drawn),12.4%
15,O=C(Nc1ccc(S(=O)(=O)Nc2ncccn2)cc1)c1ccc2ncsc2c1,9.19%
16,Cc1cccc(C)c1OCCNC(=O)CCC(=O)c1ccccc1,8.59%
17,O=C(CCCc1ccccc1)N=C1SC2CS(=O)(=O)CC2N1c1ccccc1F (stereo not drawn),4.65%
18,COc1ccc(-c2nnn(CC(=O)N(CC(=O)NCCC(C)C)c3ccccc3)n2)cc1OC,9.66%
19,COc1c(Cl)ccc(Cl)c1C(=O)NC(=S)N1CCOCC1,0.869%
20,CCNC(=O)CC1C(=O)N(c2ccc(F)cc2)C(=O)N1Cc1ccccn1 (stereo not drawn),-5.1%
21,O=c1[nH]c(C2CCCN(S(=O)(=O)c3ccccc3)C2)nc2c1nnn2Cc1ccc2c(c1)OCCO2 (stereo not drawn),13.7%
22,COc1ccc2nc(N/C(N)=N/C(=S)Nc3ccc(C)c(C)c3)nc(C)c2c1,10.5%

row,Compound,"hERG current change (%, negative = inhibition) at 1uM"
1,COc1cccc(-c2cc(C(F)(F)F)nc(N3CCOCC3)n2)c1,12.7%
2,Cc1cccc(NC(=O)CSCC(=O)NNC(=O)c2ccoc2C)c1,4.82%
3,FC(F)(F)c1nnc2sc(-c3ccccn3)nn12,7.91%
4,COc1cnc(-c2ccccc2)nc1Oc1ccc(Cl)cc1C,7.62%
5,CCC(=O)Nc1ccc2c(c1)ncn2-c1ccccc1OC,-3.76%
6,COc1cc(OC)cc(-c2cc3ccc(OC)cc3cn2)c1,16.3%
7,COc1ccc2c(c1OC)C(=O)N1c3ccccc3C(=O)N(c3ccccc3F)C21 (stereo not drawn),5.43%
8,CCN(C(=O)Cn1c(=O)oc2ccccc21)c1cccc(C(F)(F)F)c1,12.3%
9,Cc1nc(N)nc(N)c1CCCc1ccc(Cl)c(Cl)c1,8.81%
10,COc1ccc(CNC(=O)CSc2n[nH]c(N)n2)cc1OC,-73.4%
11,Cc1ccc(O)c(CNc2nc3ccccc3n2C(C)C)c1,17.8%
12,CC(C)N1CCc2c(sc(NC(=O)Cc3ccccc3)c2C#N)C1.Cl,3.03%
13,S=C(NCCCn1ccnc1)Nc1cccc(Cl)c1,0.748%
14,O=C(NCc1ccccn1)C1C2C=CC(C2)C1C(=O)Nc1ccc(F)cc1 (stereo not drawn),0.921%
15,O=C(CCC1CCCC1)N1CCC(N2CCN(c3ccccc3)CC2)CC1,-41.6%
16,COc1cccc(-n2c(C)nc3c(cnn3-c3ccc(Cl)cc3)c2=O)c1,3.32%
17,Cc1sc2ncn(CC(=O)N3CCCCC3)c(=O)c2c1C,8.93%
18,CN(C)/N=C/C=C1\CCC/C(=C\c2ccc(F)c(F)c2)C1=O,12.6%
19,CCN(CC)C1CCN(C(=O)c2cc(COc3ccccc3SC)on2)C1 (stereo not drawn),-45.2%
20,COc1cc(Cl)c(C)cc1NC(=O)COC(=O)c1ccc(CN2CCCC2=O)cc1,-0.226%
21,O=C1CCC/C(=N\NC(=O)c2ccc(COc3ccccc3-c3ccccc3)cc2)C1,9.63%
22,O=C1C=CCCC1,16.3%

row,Compound,"hERG current change (%, negative = inhibition) at 1uM"
1,COc1cc(NC(=O)C2CC(=O)NC3=C2C(=O)CCC3)c(OC)cc1Cl (stereo not drawn),-7.92%
2,COc1ccccc1NC(=O)c1ccc(SCC(=O)NCc2ccccc2Cl)c([N+](=O)[O-])c1,8.8%
3,[2H]c1c([2H])c([2H])c(C(=O)c2sc(N3CCCCCC3)nc2-c2ccccc2)c([2H])c1[2H],12.5%
4,Cc1cc(=O)[nH]c(-n2nc(C)cc2C)n1,5.9%
5,CN(CC(=O)Nc1ccccc1C(F)(F)F)C(=O)Cc1ccc(S(=O)(=O)N2CCOCC2)s1,2.7%
6,CC(C)OC(=O)CSc1nc(N)c(C#N)c(-c2ccco2)c1C#N,8.37%
7,CCOC(=O)C1CCCN(S(=O)(=O)c2ccc(NC(C)=O)cc2)C1 (stereo not drawn),17.9%
8,COC(=O)CNC(=O)Cc1c(C)n(C(=O)c2ccc(Cl)cc2)c2ccc(OC)cc12,7.67%
9,CC(=O)/C=C1/C(=O)Nc2ccccc21,-6.33%
10,Cc1c(NC(=O)C(=O)/C=C(/O)c2ccccc2)c(=O)n(-c2ccccc2)n1C,5.16%
11,O=C(/C=C/c1ccccc1)NC1CCCc2ccccc21 (stereo not drawn),28.4%
12,O=C(COc1cccc2c1CCN(Cc1ccccc1)C2=O)NCc1ccco1,-30.1%
13,COc1ccc(-c2csc(NC(=O)c3ccc(N4C(=O)CCC4=O)cc3)n2)cc1OC,6.6%
14,O=C(Nc1cccnc1Cl)c1cc2ccccc2o1,15.3%
15,COC(=O)C1=C(c2cccc(OCc3ccccc3)c2)C[C@@H]2CC[C@H]1N2C(=O)NCc1ccc(OC)c(OC)c1,15.3%
16,O=C(CCCN1C(=O)c2ccccc2C1=O)NCCN1C(=O)S/C(=C\c2cccs2)C1=O,3.64%
17,Cc1cccc(-c2nnc(N)s2)c1,10.9%
18,COc1ccc(C(=O)OC(COc2ccccc2)Cn2ccnc2)cc1 (stereo not drawn),0.723%
19,CC(C)c1ccc(S(=O)(=O)N2CCN(CC(=O)c3ccc(O)c(O)c3)CC2)cc1,5.18%
20,COc1cc(C2c3c(n[nH]c3C)C(=O)N2c2ccc(C)cc2)ccc1O (stereo not drawn),6.53%
21,Cc1ccc(NC2CCCN(C(=O)CCc3scnc3C)C2)cc1C (stereo not drawn),6.92%
